The source of these data is the supplement of paper PMC6531468.

Some of the results follow. These are enrichments in a pooled selection; single values are uncertain. Each score is taken over the longer molecules that contain the sequence shown.

Experiment in all cases: 6-mer SELEX enrichment z-score vs GST control; IMP3 is the RNA-binding protein IGF2BP3; higher = more enriched by binding
One experiment has as its system IMP3 KH1-4. To be noted: construct: KH1-4 (164-579); SELEX round: R4. The method, then: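 SELEX-seq with GST-tagged IMP3 KH1-4 (Pro164-Lys579) and an N40 RNA pool, round 4. 6-mer z-score of sequence-tag enrichment normalised to the corresponding GST SELEX round; RNA k-mers written as DNA (T for U).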
In a further experiment the test system is IMP3 RRM1-2. To be noted: construct: RRM1-2 (1-163); SELEX round: R2. How it is done:
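SELEX-seq with GST-tagged IMP3 RRM1-2 (Met1-Asn163) and an N40 RNA pool, round 2. 6-mer enrichment z-score normalised to GST SELEX. RNA written as DNA (T = U).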

Another experiment deals with IMP3 KH1-2. To be noted: construct: KH1-2 (164-376); SELEX round: R4. How it is done:
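SELEX-seq with GST-tagged IMP3 KH1-2 (Pro164-Phe376) and an N40 RNA pool, round 4 (stringent 300/600 mM KCl washes). 6-mer z-score of sequence-tag enrichment normalised to the corresponding GST SELEX round; RNA k-mers written as DNA (T for U).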

The test system of a further experiment is IMP3 KH3-4. The conditions noted are these: construct: KH3-4 (377-579); SELEX round: R4. The method, then: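 SELEX-seq with GST-tagged IMP3 KH3-4 (Pro377-Lys579) and an N40 RNA pool, round 4. 6-mer z-score of sequence-tag enrichment normalised to the corresponding GST SELEX round; RNA k-mers written as DNA (T for U).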
Chain of IMP3 KH3-4 (chain, as listed by the source): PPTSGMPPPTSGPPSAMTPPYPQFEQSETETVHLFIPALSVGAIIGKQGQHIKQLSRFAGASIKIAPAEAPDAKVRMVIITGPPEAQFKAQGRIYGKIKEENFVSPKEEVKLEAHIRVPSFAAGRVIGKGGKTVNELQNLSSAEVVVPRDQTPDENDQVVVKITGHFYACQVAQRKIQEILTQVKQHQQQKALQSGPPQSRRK

Chain of IMP3 KH1-4 (chain, as listed by the source): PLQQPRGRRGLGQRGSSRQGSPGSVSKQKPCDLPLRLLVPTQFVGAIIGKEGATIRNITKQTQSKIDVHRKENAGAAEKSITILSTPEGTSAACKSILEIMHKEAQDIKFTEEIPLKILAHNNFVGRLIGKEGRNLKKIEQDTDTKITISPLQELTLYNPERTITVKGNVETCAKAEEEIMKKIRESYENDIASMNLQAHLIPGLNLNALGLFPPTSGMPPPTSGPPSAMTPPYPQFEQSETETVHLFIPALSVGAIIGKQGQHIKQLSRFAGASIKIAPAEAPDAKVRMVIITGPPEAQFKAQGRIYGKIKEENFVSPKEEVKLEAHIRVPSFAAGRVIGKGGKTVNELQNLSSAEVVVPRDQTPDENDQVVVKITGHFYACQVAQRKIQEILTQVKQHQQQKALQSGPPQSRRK
Chain of IMP3 KH1-2 (chain, as listed by the source): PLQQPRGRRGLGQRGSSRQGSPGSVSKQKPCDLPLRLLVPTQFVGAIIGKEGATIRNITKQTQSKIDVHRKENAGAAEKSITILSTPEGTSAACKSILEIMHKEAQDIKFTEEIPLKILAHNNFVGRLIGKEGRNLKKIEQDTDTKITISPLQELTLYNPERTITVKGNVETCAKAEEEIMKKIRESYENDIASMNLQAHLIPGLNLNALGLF
Chain of IMP3 RRM1-2 (chain, as listed by the source): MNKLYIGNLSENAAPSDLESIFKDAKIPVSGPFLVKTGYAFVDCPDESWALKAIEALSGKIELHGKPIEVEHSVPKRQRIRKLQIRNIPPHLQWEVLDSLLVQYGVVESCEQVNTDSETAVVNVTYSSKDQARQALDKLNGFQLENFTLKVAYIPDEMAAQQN

As to AGTGTC, the “6-mer SELEX enrichment z-score” value in the experiment with IMP3 KH1-4 is -0.613; in the experiment with IMP3 RRM1-2, 0.262; with IMP3 KH1-2 it was -0.522; in the experiment with IMP3 KH3-4, -0.435.
The like results for GTTTTT were, in that order, 0.186, 0.422, 0.259 and 0.487.
The like results for TACCCC were, in that order, -0.445, -0.476, -0.447 and -1.01.
Regarding CACGCA, the “6-mer SELEX enrichment z-score” value in the experiment on IMP3 KH1-4 was 1.38; in the experiment on IMP3 RRM1-2 it was 1.84; with IMP3 KH1-2, 1.3; with IMP3 KH3-4 it was 0.459.
Consider CGCACG, for which the “6-mer SELEX enrichment z-score” value is 0.146 with IMP3 KH1-4, 0.374 in the experiment with IMP3 RRM1-2, 0.155 in the experiment on IMP3 KH1-2 and -0.375 with IMP3 KH3-4.
The like results for TAGAGT were, in that order, 0.036, 0.019, -0.018 and 0.262.
The like results for AGGATC were, in that order, 0.205, 0.635, 0.017 and 0.183.
In the case of AAAGAT, the “6-mer SELEX enrichment z-score” value in the experiment with IMP3 KH1-4 was 0.78; in the experiment with IMP3 RRM1-2, -1.65; in the experiment on IMP3 KH1-2, 0.447; in the experiment on IMP3 KH3-4, 1.73.
On to CCACGC, for which the “6-mer SELEX enrichment z-score” value was -0.561 in the experiment on IMP3 KH1-4, -0.07 in the experiment with IMP3 RRM1-2, -0.506 in the experiment on IMP3 KH1-2 and -1.22 in the experiment on IMP3 KH3-4.
On the same counts, the results for TAAACT are 0.568, -0.646, 0.54 and 0.897.
Take ACAGGT: the “6-mer SELEX enrichment z-score” value in the experiment on IMP3 KH1-4 was 0.32; in the experiment on IMP3 RRM1-2, 0.533; with IMP3 KH1-2, 0.239; in the experiment on IMP3 KH3-4 it was 0.28.
Take CGCATA: the “6-mer SELEX enrichment z-score” value in the experiment with IMP3 KH1-4 came to 0.659; in the experiment on IMP3 RRM1-2 it was 0.413; with IMP3 KH1-2 it was 0.646; in the experiment on IMP3 KH3-4, 0.464.
The like results for CGTCAA were, in that order, -0.981, 0.008, -0.956 and -0.946.
In the case of ATGTCG, the “6-mer SELEX enrichment z-score” value in the experiment with IMP3 KH1-4 was found to be 0.34; in the experiment with IMP3 RRM1-2, 0.333; with IMP3 KH1-2 it was 0.125; with IMP3 KH3-4 it was 0.369.
The like results for CCACTT were, in that order, 0.321, 0.352, 0.244 and -0.135.
The like results for CGGAAG were, in that order, -0.396, -0.703, -0.26 and -0.309.
On the same counts, the results for CCAGTT are 0.185, 0.07, 0.095 and -0.027.
Consider GTTTCG, for which the “6-mer SELEX enrichment z-score” value is -0.507 with IMP3 KH1-4, 0.446 in the experiment on IMP3 RRM1-2, -0.361 with IMP3 KH1-2 and -0.235 with IMP3 KH3-4.
On the same counts, the results for CACTCT are 0.119, 0.54, 0.171 and -0.166.
The like results for TCGTCA were, in that order, -0.101, 0.451, -0.179 and -0.114.
For GGATCC, the “6-mer SELEX enrichment z-score” value is -0.461 with IMP3 KH1-4, -0.239 in the experiment with IMP3 RRM1-2, -0.38 in the experiment on IMP3 KH1-2 and -0.67 in the experiment on IMP3 KH3-4.
On to GCCCAG, for which the “6-mer SELEX enrichment z-score” value with IMP3 KH1-4 was -1.38; with IMP3 RRM1-2, -0.605; in the experiment with IMP3 KH1-2, -1.2; in the experiment on IMP3 KH3-4 it was -1.5.
With GCACTA, the “6-mer SELEX enrichment z-score” value amounted to 1.13 in the experiment with IMP3 KH1-4, 0.4 with IMP3 RRM1-2, 0.814 in the experiment on IMP3 KH1-2 and 0.973 in the experiment with IMP3 KH3-4.
On the same counts, the results for ACCAGA are -0.777, -0.228, -0.807 and -1.01.
On the same counts, the results for ACCCTA are -1.43, -0.898, -1.46 and -1.75.
As to CTAGCC, the “6-mer SELEX enrichment z-score” value in the experiment on IMP3 KH1-4 is -0.664; in the experiment with IMP3 RRM1-2, -0.335; with IMP3 KH1-2 it was -0.676; in the experiment with IMP3 KH3-4, -0.869.
On the same counts, the results for TGAACT are 0.283, -0.789, 0.109 and 0.311.
The like results for GCAGGC were, in that order, 1.44, 0.39, 1.13 and 0.972.
In the case of AGTGGA, the “6-mer SELEX enrichment z-score” value in the experiment with IMP3 KH1-4 is 0.21; with IMP3 RRM1-2 it was -0.321; in the experiment with IMP3 KH1-2, 0.033; in the experiment on IMP3 KH3-4, 0.242.
